In patent US20090298813A1, “USE OF NEUROPROTECTIVE COMPOUNDS IN OBTAINING MEDICAMENTS INTENDED FOR THE TREATMENT OF NEURODEGENERATING DISEASES” (LES LABORATOIRES SERVIER, priority 2007, published 2009):

System: mixed (neurons and glia) primary embryonic mesencephalic cultures
Assay: Neuroprotective and neurotrophic effects in an in vitro model of neurodegeneration (epoxomicin)
Conditions: 48 hours

CN1CCC=C(C(=O)Nn2ccc3ccccc32)C1 [Example 2, N-(1H-indol-1-yl)-1-methyl-1,2,5,6-tetrahydropyridine-3-carboxamide]
neuronal survival (neurotrophic) (in the absence of epoxomicin, between 100 nM and 30 μM): doubles
concentrations at which it has neuroprotective properties (in the presence of epoxomicin (50 nM)): greater than or equal to 10 μM
